According to US20260263442A1, “METHOD FOR TREATING L-DOPA-INDUCED DYSKINESIA USING BEFIRADOL” (Neurolixis, Inc., priority 2023, published 2026):

Assays:
[1] = system: patients with moderate to severe L-DOPA-induced dyskinesia (LID) in Parkinson's disease; design: species or system human; details: in vivo
Procedure: Blood pressure (systolic and diastolic) and pulse would be measured in sitting position after at least 5 minutes of rest and then again 3 minutes after standing upright to determine whether the patient has orthostatic hypotension (decrease in systolic blood pressure of at least 20 mm Hg or diastolic blood pressure of at least 10 mm Hg within 3 minutes of the patient standing up, compared to the blood pressure obtained while in the sitting position). At screening and baseline (Visit 1 and Visit 2), the investigator should collect 3 assessments, each taken 15 to 20 minutes apart, in order to obtain an average value. All measurements and the calculated average value should be recorded in the eCRF. At other visits, one assessment is sufficient. Respiratory rate would be assessed by routine methods. Body temperature would be measured orally using a digital thermometer. Any vital signs outside the normal ranges at each site would be judged as NCS or CS. The assessment would be recorded in the eCRF. Post-dose vital signs judged as “abnormal, clinically significant” by the Investigator would be reported as AEs. Vital signs (systolic/diastolic blood pressure, orthostatic blood pressure, pulse, respiratory rate and body temperature) would be summarized by treatment. Data would be presented with absolute and percent change from baseline.

[2] = system: L-DOPA-induced dyskinesia (LID) in Parkinson's disease patients; experiment: Unified Dyskinesia Rating Scale (UDysRS) after 150% L-DOPA challenge, Phase 2a study; details: for UDysRS Part 3 + 4, Baseline / UDysRS Part 3 + 4, Δ / UDysRS Total, Baseline / UDysRS Total, Δ: on NLX-112
[3] = system: patients with moderate to severe L-DOPA-induced dyskinesia (LID) in Parkinson's disease; experiment: Patient highest titration dose, Phase 2a study; assay type: in vivo, human; details: NLX-112 (n = 15)
Procedure: • Days 1-4 (0.25 mg/day): 1 tablet in the morning, none in the evening • Days 5-8 (0.5 mg/day): 1 tablet in the morning and 1 tablet in the evening • Days 9-12 (0.75 mg/day): 2 tablets in the morning, 1 tablet in the evening • Days 13-16 (1.0 mg/day): 2 tablets in the morning, 2 tablets in the evening • Days 17-20 (1.25 mg/day): 3 tablets in the morning, 2 tablets in the evening • Days 21-24 (1.5 mg/day): 3 tablets in the morning, 3 tablets in the evening • Days 25-28 (1.75 mg/day): 4 tablets in the morning, 3 tablets in the evening
• Days 29-42 (2 mg/day): 4 tablets in the morning, 4 tablets in the evening Down-Titration Period (2 Weeks, Down-Titration by 0.25 mg/Day Every 2 Days): • Days 43-44 (start of down-titration period [1.75 mg/day]) • Days 45-46 (1.5 mg/day) • Days 47-48 (1.25 mg/day) • Days 49-50 (1 mg/day) • Days 51-52 (0.75 mg/day) • Days 53-54 (0.5 mg/day) • Days 55-56 (0.25 mg/day)
Patients in the placebo arm followed the same dose escalation, constant dose and down-titration schedule, but would be taking the matching placebo tablets. Patients who have intolerable adverse events (AEs) during the 28-day up-titration period would be allowed to return to the previous tolerated dose at the discretion of the Investigator, or they may withdraw from the study if they so choose. A slow down-titration was used to reduce potential withdrawal symptoms.
Four patients dropped-out during the up-titration period, 3 on NLX-112 (all due to withdrawal of consent) and 1 on placebo (due to deep brain stimulation operation). All drop-outs were included in the Full Analysis Set (FAS) but were excluded from the Per Protocol Set (PPS). One additional placebo-patient was excluded from the PPS because of a protocol violation (use of gabapentin, prohibited medication) prior to unblinding. Evaluation of safety and tolerability was based on the FAS (N=27) while efficacy evaluation was based on the PPS (N=22).

[4] = Day 28, mean (SD), per-protocol set n = 15
[5] = Patient A, amantadine treatment 1 year
[6] = Patient B, amantadine treatment 2 years
[7] = Patient C, amantadine treatment 7 years
[8] = Patient D, amantadine treatment 11 years
[9] = Patient E, amantadine treatment 6 years
[10] = Visit 2 Baseline, Per protocol analysis set, n 15
[11] = Visit 6 Clinic Efficacy Visit (Day 28), Full analysis set, n 15
[12] = Visit 6 Clinic Efficacy Visit (Day 28), Per protocol analysis set, n 15
[13] = Visit 7 Clinic Efficacy Visit (Day 42), Full analysis set, n 15
[14] = Visit 7 Clinic Efficacy Visit (Day 42), Per protocol analysis set, n 15

Compound: Cc1ccc(CNCC2(F)CCN(C(=O)c3ccc(F)c(Cl)c3)CC2)nc1 [NLX-112]
- Patients with abnormal vital signs assessed as clinically significant ([1]; human, 8 weeks): 2 patients
- Patients with abnormal vital signs assessed as not clinically significant ([1]; human, 8 weeks): 12 (67%) n (%)
- Patients with occurrences of orthostatic hypotension ([1]; human, 8 weeks): 13 out of 18
- Vital signs, changes [1]: no changes in HR, BP, body temperature
- UDysRS Part 3 sum of items, highest score of assessment sessions, change from baseline [2, 4]: significant reduction
- UDysRS Parts 3 + 4, highest score of assessment sessions, change from baseline [2, 4]: −1.7 (4.3) points
- NLX-112 group versus placebo group, change from baseline in UDysRS total score or total objective (Parts 3 and 4) score ([2]; Day 28 or Day 42): no significant differences
- UDysRS Part 3 + 4, Baseline [2, 5]: 11
- UDysRS Part 3 + 4, Δ [2, 5]: −6
- UDysRS Total, Baseline [2, 5]: 18
- UDysRS Total, Δ [2, 5]: −6
- UDysRS Part 3 + 4, Baseline [2, 6]: 22
- UDysRS Part 3 + 4, Δ [2, 6]: +3
- UDysRS Total, Baseline [2, 6]: 43
- UDysRS Total, Δ [2, 6]: −2
- UDysRS Part 3 + 4, Baseline [2, 7]: 29
- UDysRS Part 3 + 4, Δ [2, 7]: +2
- UDysRS Total, Baseline [2, 7]: 44
- UDysRS Total, Δ [2, 7]: +7
- UDysRS Part 3 + 4, Baseline [2, 8]: 28
- UDysRS Part 3 + 4, Δ [2, 8]: −11
- UDysRS Total, Baseline [2, 8]: 39
- UDysRS Total, Δ [2, 8]: −11
- UDysRS Part 3 + 4, Baseline [2, 9]: 17
- UDysRS Part 3 + 4, Δ [2, 9]: −6
- UDysRS Total, Baseline [2, 9]: 31
- UDysRS Total, Δ [2, 9]: −8
- UDysRS Parts 1, 2, 3, and 4 most severe, Collected value, Median (Min, Max) ([2]; Visit 2 Baseline, Full analysis set, n 18): 31.0 (13, 47)
- UDysRS Parts 1, 2, 3, and 4 most severe, Collected value, Median (Min, Max) [2, 10]: 31.0 (13, 47)
- UDysRS Parts 3 and 4 average, Collected value, Median (Min, Max) [2, 10]: 13.00 (3.7, 27.0)
- UDysRS Parts 3 and 4 most severe, Collected value, Median (Min, Max) [2, 10]: 14.0 (6, 29)
- UDysRS Parts 1, 2, 3, and 4 average, Absolute change from baseline, Median (Min, Max) [2, 11]: −3.00 (−21.0, 7.3)
- UDysRS Parts 1, 2, 3, and 4 most severe, Absolute change from baseline, Mean (SD) [2, 11]: −4.1 (9.3)
- UDysRS Parts 1, 2, 3, and 4 most severe, Absolute change from baseline, Median (Min, Max) [2, 11]: −2.0 (−21, 11)
- UDysRS Parts 1, 2, 3, and 4 most severe, Collected value, Median (Min, Max) [2, 11]: 28.0 (14, 55)
- UDysRS Parts 3 and 4 average, Relative change from baseline (%), Median (Min, Max) [2, 11]: −20.0 (−88, 64) %
- UDysRS Parts 3 and 4 most severe, Absolute change from baseline, Mean (SD) [2, 11]: −1.7 (4.3)
- UDysRS Parts 3 and 4 most severe, Absolute change from baseline, Median (Min, Max) [2, 11]: −1.0 (−10, 7)
- UDysRS Parts 3 and 4 most severe, Collected value, Median (Min, Max) [2, 11]: 12.0 (2, 36)
- UDysRS Parts 1, 2, 3, and 4 average, Absolute change from baseline, Median (Min, Max) [2, 12]: −3.00 (−21.0, 7.3)
- UDysRS Parts 1, 2, 3, and 4 most severe, Absolute change from baseline, Mean (SD) [2, 12]: −4.1 (9.3)
- UDysRS Parts 1, 2, 3, and 4 most severe, Absolute change from baseline, Median (Min, Max) [2, 12]: −2.0 (−21, 11)
- UDysRS Parts 1, 2, 3, and 4 most severe, Collected value, Median (Min, Max) [2, 12]: 28.0 (14, 55)
- UDysRS Parts 3 and 4 average, Relative change from baseline (%), Median (Min, Max) [2, 12]: −20.0 (−88, 64) %
- UDysRS Parts 3 and 4 most severe, Absolute change from baseline, Mean (SD) [2, 12]: −1.7 (4.3)
- UDysRS Parts 3 and 4 most severe, Absolute change from baseline, Median (Min, Max) [2, 12]: −1.0 (−10, 7)
- UDysRS Parts 3 and 4 most severe, Collected value, Median (Min, Max) [2, 12]: 12.0 (2, 36)
- UDysRS Parts 1, 2, 3, and 4 most severe, Absolute change from baseline, Mean (SD) [2, 13]: −6.3 (7.0)
- UDysRS Parts 1, 2, 3, and 4 most severe, Absolute change from baseline, Median (Min, Max) [2, 13]: −8.0 (−19, 7)
- UDysRS Parts 1, 2, 3, and 4 most severe, Collected value, Median (Min, Max) [2, 13]: 24.0 (11, 51)
- UDysRS Parts 1, 2, 3, and 4 most severe, Relative change from baseline (%), Mean (SD) [2, 13]: −19.0 (22.6) %
- UDysRS Parts 3 and 4 most severe, Absolute change from baseline, Mean (SD) [2, 13]: −3.1 (4.2)
- UDysRS Parts 3 and 4 most severe, Absolute change from baseline, Median (Min, Max) [2, 13]: −4.0 (−11, 3)
- UDysRS Parts 3 and 4 most severe, Collected value, Median (Min, Max) [2, 13]: 11.0 (5, 31)
- UDysRS Parts 3 and 4 most severe, Relative change from baseline (%), Mean (SD) [2, 13]: −21.0 (24.5) %
- UDysRS Parts 1, 2, 3, and 4 average, Collected value, Median (Min, Max) [2, 14]: 23.00 (10.3, 47.7)
- UDysRS Parts 1, 2, 3, and 4 most severe, Absolute change from baseline, Mean (SD) [2, 14]: −6.3 (7.0)
- UDysRS Parts 1, 2, 3, and 4 most severe, Absolute change from baseline, Median (Min, Max) [2, 14]: −8.0 (−19, 7)
- UDysRS Parts 1, 2, 3, and 4 most severe, Collected value, Median (Min, Max) [2, 14]: 24.0 (11, 51)
- UDysRS Parts 1, 2, 3, and 4 most severe, Relative change from baseline (%), Mean (SD) [2, 14]: −19.0 (22.6) %
- UDysRS Parts 3 and 4 most severe, Absolute change from baseline, Mean (SD) [2, 14]: −3.1 (4.2)
- UDysRS Parts 3 and 4 most severe, Absolute change from baseline, Median (Min, Max) [2, 14]: −4.0 (−11, 3)
- UDysRS Parts 3 and 4 most severe, Collected value, Median (Min, Max) [2, 14]: 11.0 (5, 31)
- UDysRS Parts 3 and 4 most severe, Relative change from baseline (%), Mean (SD) [2, 14]: −21.0 (24.5) %
- Effect on LID ([2]; apparently treatment-duration dependent): significantly reduced LID
- UDysRS Part 3 sum of items, average of 3 assessments, NLX-112 group versus placebo group ([2]; day 28 and day 42): significantly greater change from baseline
- Patients with highest titration dose 1.0 mg, % [3]: 6.7%
- Patients with highest titration dose 1.75 mg, % [3]: 13.3%
- Patients with highest titration dose 2.0 mg, % [3]: 80%
